Read counts are not given, so values of variants with three or more changes are uncertain.
B1: LINE1-mini (parent)
chain: GGCAGAGCUCAACACAGCGUGGCAAAGUGGCUGUGGCUAGACUGCC

Variants of: B1
Assay: self-cleavage, relative activity (ratio to wild type); higher = more cleavage; in vitro, sequencing; the parent is a self-cleaving ribozyme

Variant	self-cleavage
GGCAGAGAUCAACACAGCGUGGCAAUGUGGCCUUGGCUAUACUGCC	0.14
GGCAGAGCUCAACACAGCGUGGCAAAGUGGCUGUCGCUAGAAUGUC	0.01
GGCAAAUCUCAACACAGCGUGGCAAAGUGGCUGUGGCCAGAUUGCC	0.12
GGCAGAGCUCAACACAGCGUGACAAAAUGGCUGUGGCUAAACUGCC	0.08
GGCAGAGCUCUACACAGUGUGGCAAAGUGGCUGUGUCUAGACUGCC	0.02
GGCAGAGCUCAACUCAGCGUGGCUAAGUGGCUGUGGCUAGACUCCC	0.06
GGCAGAGCUCCACACAGGGUUGCAAAGUGGUUGCGGCUAGACUGCC	0.02
GGCAGAGGUCAUCACAGCAUGGCAAAGUGGCUGUGGCUAGACUGCC	0.01
GGCAGAGCGCAACACAGCGUGGCAAAGUGGCGGUCGCUAGACUGCC	0.02
GGCAGAUAUCAACACAGCGUAGCAAAGUGGCUGGGGCGAGGCAGCC	0.49
GUCAGAGCUCAACACAGCGUGGCAAAGUGGCUAUGGCUAGACCGCC	0.01
GGCAGAGCUCAACACAUCACGGCAAUGUGGCCGUGGCUAGACUGCC	0.02
GGCAGAGCUCAACACAGCGUGGCAAAAUGGCUGUGGCUAGACUAGC	0.31
GGCAGAUCUCAACACAGCGUGGCAAAGUGGCUCUGGCUAGACUUCC	0.06
GGCAGAGUUAAACACAGCGUGACAAAGUGGCUGUGGCUAGACUGCC	0.01
GGCAGAGUUCAACACAGCGUGGCAAAUUGGCUUUGGCUAGACUGCC	0.22
GGAAGAUCUCAACGGAGGGUGGCAAACUGGCUGUGGCUAGACUGCC	0.06
GGCAGAGCUCCACACACCGUGGCAAAGUGACUGUGGCUAGACUGCC	0.03
GGCAGUGCUCAACACAGCGUGGCAAAUUGUCCGGAGCUAGACUGCC	0.07

Variant	self-cleavage
GGCAGCGUUCAACACAGCGUGGCAAAGUGGCUGUGCCUAGAAUACC	0
GGGAGAGCUAAACAUAGCGUUGAAAAGUGGCUGUGGCUAGAUUGCC	0.03
GGCAGAGCUCAACACAGCGUGGCAGACUUUCUGUGGCUAGACUGCC	0.08
GGCAGAGCUCACCAAAGCGUGGCAAAGUUGCUUUGGCUAGACUGCC	0.04
GGCGGAGCUCAACACAGCGUGGCCAAGUGGCUGUGGCUAGACUGCG	0.06
GGCAGAGCUCAAAACAGCGUGGCAAAAUGGCUGUUGCUAGACUGCC	0.4
GGCAGAGCUCACAACAGCGUGGUAAAGUGGCUGUGGCUAGACUGCC	0.03
GUCAGAGCUGAACACAGCGAGGCUAAGUGGCUGGGGCUAGACUGCG	0
GGCAGAGCUCAGCACAGCGUAGCAAAGUGGCUGUGGAUAGACUCCC	0.08
GCCAUAGCUCAACACAGCGUGACAAAGCGGCUCUGGCUAGACUGCC	0.02
GGCAGAGCUCAACACAGCGUGGUAAAGUGGCUGUUGAUAGACUGCC	0.04
GUCAGAGCCCAACACAGUGUGGCAAAGUGGCGGUGGCUAGACUGCA	0.03
GGCAGAGCUCAACACAGCAAGGCAAAGUGGCUGUGGCUAGAAUGCC	0.04
GGCAGAGCUCAAAUCAGCGUUGCAAAGUGGCUGUGGCUAGACUGCC	0.01
GACAGAGCUCAACACAGCGUGUCAAAGUGGCUGUGGCUACAUUGCC	0.03
UGCAGAGCUCAACACAGCGGGGCAAAGGGUAUGUAGCUAGAAUGCC	0.03
GGCAGAGCUCAUCAGAGCGUGGCAAAGUGGCUGUGGCUUGACUGCC	0.02
UGCAGAGCUCAACAAAGCGUGGCAAAUUGGUUGUGGCUACACUGCC	0.02
GGCACAGCUCAACACUGCGUGCCAAAGUGGCUGUUGCUAGACUGCU	0.11

Variant	self-cleavage
GGCAAAGAUCAACACAGCGUGGCAAAAUGGCUGUAGCUAGACUGCU	2.44
GGCAGAGCUUAACACAGCGUGGCAAAGUGGGGGUGGCUAGACUGCC	0.04
GGCAGAGCUCAAUACAGCGUGGCAAAGUGGUUGUGGCUAGACUGGC	0.05
GGCAGAGCUCAACACAGCGUGGCAAAGUGGAUGUGGUUAGAUUGCG	0.01
GGCAGAGCUCAACACAGCGUGGGAAAGUGGCUGUGGCUAGACUUUC	0.06
GGCAGAGCUCAACACAGCGUGGCAAAGUGCCUGUCGCUAGAGUGCC	0.15
GGCAGAGCUCAACACAGCGUGGCAAGGUGGCUAAGGCUAGACUGCC	0.02
GGCAGAUCACAACACAGCGUGGCAAAGUGGCUGUGGCUAGACUGAC	0.35
GGCUGAUCUCAACACUGCGUGGCAAAGUGGCUGUGGCUAGCCUGCC	0.13
GGCAGAGCUCAACACAGCGUGGCAAAUUGGCGGAGGCUAGAUAGCA	0.21
GGGAGAGCUCAAAACAGCGUGGCAAAUUGGCUGUGUCUAGACUGCC	0.14
GCCAGAGCUCAACGCUGCGGGGCAAACUGGCUGUGGCUAGACUGCC	0.01
GGCAGAGCUCAACAGAGCGUGGUAAAGUGGCUCUGGCUAGACUGCC	0.34
AGCAGAGCUCAACACAGCGUGGCAAAGUGGCUGUGGUUAGACUGCU	0.08
GGCAGACCUCACUAAAGCGUGGCAAAGUGGCUGUGGCUAGACUGCC	0.04
GGCAGAGCUCAACACGGCCUGGCAAAGUCGCUGUGGCUAGACUGCC	0.04
GGCAAAGCUCAACACAGCGUGGCAAUGAGGCUGUGACUAGACUGCC	0.06
GGCAGAGCUAAACACAGCGUGGCAAAGUAGCUGUGGAUAGACUUCG	0
